The full ranking holds about 33,000 sequences; the median of “E-score (-0.5 to 0.5)” is about -0.035, and the highest 2% start at about 0.35. The list shows a part of the results.
Molecular target: T1, Pdr3 (UniProt P33200)
T1 sequence: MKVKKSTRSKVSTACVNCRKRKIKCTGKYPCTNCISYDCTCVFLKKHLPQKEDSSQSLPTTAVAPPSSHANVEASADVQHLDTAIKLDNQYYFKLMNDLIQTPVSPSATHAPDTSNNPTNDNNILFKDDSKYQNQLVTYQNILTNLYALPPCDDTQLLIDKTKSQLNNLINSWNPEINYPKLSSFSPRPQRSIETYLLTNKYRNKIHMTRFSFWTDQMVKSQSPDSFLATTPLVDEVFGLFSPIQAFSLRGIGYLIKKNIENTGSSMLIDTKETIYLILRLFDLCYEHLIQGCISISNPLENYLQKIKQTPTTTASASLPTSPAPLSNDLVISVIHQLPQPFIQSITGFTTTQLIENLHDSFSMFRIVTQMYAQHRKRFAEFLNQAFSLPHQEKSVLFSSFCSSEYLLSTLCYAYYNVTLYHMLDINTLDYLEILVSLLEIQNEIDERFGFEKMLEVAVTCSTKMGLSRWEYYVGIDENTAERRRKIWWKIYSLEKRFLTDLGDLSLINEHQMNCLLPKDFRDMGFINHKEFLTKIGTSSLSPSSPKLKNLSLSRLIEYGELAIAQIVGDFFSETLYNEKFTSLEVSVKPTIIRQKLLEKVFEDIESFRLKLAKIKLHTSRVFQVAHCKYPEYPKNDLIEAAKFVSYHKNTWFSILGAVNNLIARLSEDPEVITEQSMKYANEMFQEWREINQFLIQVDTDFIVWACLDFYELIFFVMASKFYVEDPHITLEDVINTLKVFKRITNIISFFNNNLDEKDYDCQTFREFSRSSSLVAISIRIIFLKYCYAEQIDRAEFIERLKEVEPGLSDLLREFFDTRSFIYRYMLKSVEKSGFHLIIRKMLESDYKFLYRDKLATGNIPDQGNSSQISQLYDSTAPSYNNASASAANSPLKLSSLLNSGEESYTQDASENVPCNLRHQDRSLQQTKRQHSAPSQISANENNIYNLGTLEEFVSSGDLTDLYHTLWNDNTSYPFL
Experiment: PBM E-score (8-mer binding enrichment) (E-score (-0.5 to 0.5)); higher = stronger / more preferred TF binding; most listed sequences are background and not binding sites
Details: protein concentration: 200 nM; construct: GST-full length
Procedure, shortened: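 Universal all-10-mer Agilent arrays, fresh or stripped once, were converted to double-stranded form by primer extension. GST-tagged yeast transcription factors from PURExpress in vitro transcription/translation, full-length or DNA-binding domain only, were applied at about 100-200 nM and detected with fluorescent anti-GST. After masliner normalisation, the Universal PBM Analysis Suite scored each ungapped eight-base word together with its reverse complement by E-score.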

Sequence | PBM E-score
AGGACACT | -0.201
ACCGAGCC | 0.102
TACTAGGA | -0.00487
CCAATCGG | 0.0905
CTCATCCA | -0.146
TTGGGAAA | 0.0633
ATCTTACA | -0.0932
CCCGGTAG | 0.187
AGAAAAGC | 0.0469
GACGAGAA | -0.0493
GGCGCACA | 0.207
CGTAAAGC | -0.301
TAATATCA | -0.167
GCCGACGA | 0.101
ACGTAGAC | -0.225
CGATTCGC | 0.13
ACAGTAGC | -0.138
GATTGCAA | 0.0405
AGATGCGC | 0.0125
CGAACTAC | 0.109
ACTATAAC | -0.144
CTGAGAGC | -0.0543

Sequence | PBM E-score
AGAGGTCC | 0.152
AAATCTTA | -0.171
CTTTCGTC | 0.0215
CTGACATA | -0.251
ACTATTCG | -0.0887
CGGCACTA | 0.244
CCGCATAA | 0.336
CCAAGAAG | -0.141
CTGCGCGA | -0.0594
ATATGTGG | -0.0565
AGACAACT | -0.0312
GCTTCGAA | -0.0532
CGTCATAC | 0.0601
GAGAGAGA | 0.0254
GCCTTTAA | -0.0677
AATTCGGC | 0.173
TAAGGTAA | -0.00576
GCTGCAGC | 0.171
GCGGATTA | 0.204
CGGGTTAC | 0.192
ACTTTGCT | -0.206
CTTCAGGC | -0.224

Sequence | PBM E-score
GAGGTGTA | -0.13
CAAGGGTG | -0.18
GGAACGAA | 0.294
ACCCCTTA | -0.0682
GTGTAAGA | -0.166
CTACCGTC | 0.00154
CTAGAGAG | -0.354
AACGGATC | 0.367
CGATTAGC | -0.127
ATCATTCA | 0.056
CGCTAGAG | -0.215
GCGACACA | -0.0561
CACCAGTC | -0.265
ATCGTAGG | -0.17
ATATAATG | -0.205
ACTGTGGG | -0.18
AGATTGCA | -0.0569
CGTAGATA | -0.0634
CCGGGCAA | 0.283
CCCGCGTC | 0.236
GAGTAGCC | -0.153
TCCTTTAA | -0.0542

Sequence | PBM E-score
CGAGTGAC | -0.0966
GGGAGACA | 0.122
AATGTGCC | -0.00603
GCGTTACC | -0.0363
CCGCGAGC | 0.206
GTGTCGCA | -0.131
AATGGGTA | -0.0347
GCCCCTCC | 0.0388
CCTGCATA | -0.123
CCCAGTAC | -0.149
AGGACTTA | -0.19
AACGGTAT | -0.0131
CGCGGATC | 0.431
CGCACAGC | 0.0571
AAGGGGGC | -0.191
AGTGAAGC | -0.0813
GGTAAACA | -0.0588
AGCTGAAC | -0.111
AAATCTGG | 0.0438
AGTTCCCC | 0.0744

Reference: the supplement of paper PMC3334620
